Test results as given in PubChem BioAssay AID504333 (National Center for Advancing Translational Sciences (NCATS), 2011).
The whole screen tested about 360,000 compounds, of which about 16,000 (4.4%) were called active. This list was built around the results that the source calls inconclusive (neither active nor inactive); the mix of calls is not that of the screen. Calls come from the whole dose curve; as a rule, active = well fitted inhibition curve with a large enough effect; inconclusive = small, poorly fitted or top-dose-only effect; inactive = no such curve, though single readings can be large or run the other way. Where the call is inconclusive, the potency comes from a doubtful curve fit.
Note: nearly all actives have a fitted effect of over 60% in size.
Potency is the fitted concentration of half-maximal effect; tags give direction and shape of the fitted curve.

Each compound was assayed against Bromodomain adjacent to zinc finger domain protein 2B (Homo sapiens) (UniProt Q9UIF8) (assay: qHTS Assay for Inhibitors of BAZ2B). Details: AlphaScreen BAZ2B-H3K14Ac peptide displacement; series mostly up to 114 µM.
UniProt Q9UIF8, sequence (Q9UIF8 whole entry, looked up, the tested form may be a part): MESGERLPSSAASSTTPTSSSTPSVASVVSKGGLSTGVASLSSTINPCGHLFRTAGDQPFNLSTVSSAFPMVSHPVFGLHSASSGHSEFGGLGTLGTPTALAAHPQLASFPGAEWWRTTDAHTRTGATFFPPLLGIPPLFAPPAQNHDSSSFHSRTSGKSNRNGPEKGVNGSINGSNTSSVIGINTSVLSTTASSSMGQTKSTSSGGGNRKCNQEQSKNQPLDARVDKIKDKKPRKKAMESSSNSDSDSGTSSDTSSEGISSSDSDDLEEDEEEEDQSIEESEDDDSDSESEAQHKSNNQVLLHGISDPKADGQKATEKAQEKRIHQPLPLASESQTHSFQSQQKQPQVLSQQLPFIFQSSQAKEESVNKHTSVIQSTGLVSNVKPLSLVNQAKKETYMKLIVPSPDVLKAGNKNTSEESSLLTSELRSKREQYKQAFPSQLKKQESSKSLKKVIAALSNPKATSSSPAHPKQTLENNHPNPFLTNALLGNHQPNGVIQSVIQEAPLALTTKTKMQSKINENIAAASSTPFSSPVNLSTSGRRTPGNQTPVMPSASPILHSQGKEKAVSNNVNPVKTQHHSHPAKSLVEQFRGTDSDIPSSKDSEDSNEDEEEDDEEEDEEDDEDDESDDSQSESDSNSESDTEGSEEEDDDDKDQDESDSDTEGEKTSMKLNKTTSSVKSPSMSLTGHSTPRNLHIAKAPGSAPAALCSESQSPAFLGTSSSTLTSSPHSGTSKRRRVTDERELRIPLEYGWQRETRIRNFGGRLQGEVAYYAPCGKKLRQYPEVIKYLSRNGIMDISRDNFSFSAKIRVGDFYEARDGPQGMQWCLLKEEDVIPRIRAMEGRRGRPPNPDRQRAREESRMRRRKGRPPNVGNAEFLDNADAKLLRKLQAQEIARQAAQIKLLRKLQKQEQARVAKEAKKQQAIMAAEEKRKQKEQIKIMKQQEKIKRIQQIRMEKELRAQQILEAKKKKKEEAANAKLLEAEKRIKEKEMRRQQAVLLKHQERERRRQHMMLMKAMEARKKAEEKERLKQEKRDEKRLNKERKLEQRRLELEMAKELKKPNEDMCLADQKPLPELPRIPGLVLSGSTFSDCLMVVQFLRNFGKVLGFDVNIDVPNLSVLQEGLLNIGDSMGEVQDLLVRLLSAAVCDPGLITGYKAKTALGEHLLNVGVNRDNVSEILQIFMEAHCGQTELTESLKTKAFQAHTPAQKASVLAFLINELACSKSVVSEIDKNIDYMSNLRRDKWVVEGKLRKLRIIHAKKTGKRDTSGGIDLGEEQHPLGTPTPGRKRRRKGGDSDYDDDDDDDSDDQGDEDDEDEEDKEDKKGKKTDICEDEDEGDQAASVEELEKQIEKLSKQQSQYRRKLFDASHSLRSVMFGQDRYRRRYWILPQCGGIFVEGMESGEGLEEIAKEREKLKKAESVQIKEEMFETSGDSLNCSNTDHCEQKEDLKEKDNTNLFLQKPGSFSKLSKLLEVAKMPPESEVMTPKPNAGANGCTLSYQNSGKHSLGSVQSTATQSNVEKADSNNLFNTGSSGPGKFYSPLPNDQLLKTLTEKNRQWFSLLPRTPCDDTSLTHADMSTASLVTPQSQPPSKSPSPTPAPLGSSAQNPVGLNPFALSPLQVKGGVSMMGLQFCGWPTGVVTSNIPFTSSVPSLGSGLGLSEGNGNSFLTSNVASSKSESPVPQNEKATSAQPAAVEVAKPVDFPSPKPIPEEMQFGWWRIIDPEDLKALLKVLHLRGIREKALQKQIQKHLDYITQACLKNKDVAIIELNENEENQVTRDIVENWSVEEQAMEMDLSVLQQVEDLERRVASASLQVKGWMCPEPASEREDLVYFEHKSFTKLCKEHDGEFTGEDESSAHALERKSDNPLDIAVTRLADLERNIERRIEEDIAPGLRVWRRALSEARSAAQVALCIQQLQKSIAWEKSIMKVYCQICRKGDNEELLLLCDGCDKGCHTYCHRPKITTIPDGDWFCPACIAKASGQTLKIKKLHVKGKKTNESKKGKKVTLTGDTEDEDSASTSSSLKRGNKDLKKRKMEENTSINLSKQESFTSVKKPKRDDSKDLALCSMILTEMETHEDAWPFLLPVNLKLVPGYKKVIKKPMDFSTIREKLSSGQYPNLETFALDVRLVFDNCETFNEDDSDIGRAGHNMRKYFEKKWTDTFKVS
Procedure, shortened: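 AlphaScreen luminescence quantifies BAZ2B engagement of H3K14Ac peptide; the protein and biotinylated peptide are both at 50 nM final, buffer PBS pH 7.4 with 0.01% Tween-20, all steps at room temperature.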
`COc1ccc(NC(=O)C(Cc2c[nH]c3ccccc23)NC(=O)OC(C)(C)C)cc1` (stereo not given) was tested, and the Potency was inconclusive: 79.4 µM [inhibitor, single point]. For `CN1C(=O)c2ccccc2NC(=O)[C@]12O[C@@H]2c1cccc(O)c1`, the Potency was inconclusive: 79.4 µM [inhibitor, single point]. For `O=C(COc1ncnc2ccc(Br)cc12)Nc1ccc(N2CCOCC2)cc1`, the Potency was “inactive”. With `C/C(=N\NC(N)=O)c1cccc(Cl)c1` the Potency was inconclusive: 89.1 µM [inhibitor, single point]. With `O=C(NC(=S)Nc1ccc2c(c1)OCCO2)c1cccc(Br)c1` the Potency was inconclusive: 22.4 µM [inhibitor, partial curve]. `O=C1CC(N2C(=O)/C(=C/C=C/c3ccccc3)SC2=S)C(=O)N1c1ccccc1` (stereo not given) was tested, and the Potency was inconclusive: 6.31 µM [inhibitor, full curve]. `COc1cc2[nH]c(=O)n(CCCCCC(=O)N3CC=C(c4ccccc4)CC3)c(=O)c2cc1OC` was tested, and the Potency was inconclusive: 89.1 µM [inhibitor, single point]. With `O=S(=O)(NCCc1csc2nc(-c3ccccc3)nn12)c1cccs1` the Potency was “inactive”. `COc1ccc(NC2c3ccccc3C(=O)N2c2ccccn2)cc1` (stereo not given) was tested, and the Potency was active: 56.2 µM. In the case of `CC(=O)Nc1sc2c(c1C(c1ccccc1Cl)N1CCN(CCO)CC1)CCCC2` (stereo not given), the Potency was inconclusive: 50.1 µM [inhibitor, partial curve]. `Cc1ccc(C(=O)NC(=S)NCc2ccco2)cc1` was tested, and the Potency was inconclusive: 50.1 µM [inhibitor, partial curve]. `Cc1cccc(N2CCN(C(=O)CN3CCOc4ccccc43)CC2C)c1` (stereo not given) was tested, and the Potency was inconclusive: 3.98 µM [inhibitor, full curve, poor fit]. In the case of `Cc1cccc(-n2c(CCc3ccccc3)nnc2SCC(=O)c2ccccc2)c1`, the Potency was “inactive”. For `O=C(Nc1nnc(C2=COCCO2)o1)c1ccc(Br)cc1`, the Potency was inconclusive: 89.1 µM [inhibitor, single point]. In the case of `CCN(CC(=O)Nc1ccccc1OC)C(=O)c1cccc(-n2cccc2)c1`, the Potency was inconclusive: 50.1 µM [inhibitor, partial curve]. With `Cc1cc(/C=C2/C(=O)NN(c3ccccc3)C2=O)c(C)n1-c1cccc(O)c1` the Potency was inconclusive: 35.5 µM [inhibitor, full curve, poor fit]. `CCOC(=O)N1CCN(C(=O)CSc2nc(-c3cccc(C)c3)ns2)CC1` was tested, and the Potency was “inactive”. `CC(NC(=O)c1ccc(OC2CCN(Cc3ccccn3)CC2)cc1)c1nccs1` (stereo not given) was tested, and the Potency was inconclusive: 56.2 µM [inhibitor, partial curve]. In the case of `CC1(C)CC(=O)C(N=Nc2cc(S(=O)(=O)N3CCOCC3)ccc2Cl)=C(O)C1`, the Potency was active: 56.2 µM. With `CCOC(=O)c1c(C)[nH]c(C)c1S(=O)(=O)N1CCCC(C(=O)N2CCN(c3ccccc3F)CC2)C1` (stereo not given) the Potency was inconclusive: 79.4 µM [inhibitor, single point]. In the case of `O=C(O)c1cc2c(cn1)[nH]c1ccccc12`, the Potency was active: 3.98 µM. With `CC1=NN(Cc2ccccc2)C(=O)/C1=C\c1ccc(N(C)C)cc1` the Potency was active: 10 µM. In the case of `COc1ccc([N+](=O)[O-])cc1NC(=O)CS(=O)(=O)c1ccc(C)cc1`, the Potency was “inactive”. In the case of `COc1ccc(C2=C(Nc3ccc(Br)c(C)c3)c3ccccc3C2=O)cc1`, the Potency was inconclusive: 2 µM [inhibitor, full curve]. In the case of `CC[N+](CC)(CC)CCCCOc1ccc2c(c1)C(=O)c1cc(OCCCC[N+](CC)(CC)CC)ccc1-2`, the Potency was “inactive”. With `NS(=O)(=O)c1cccc(NC(=S)NC(=O)C23CC4CC(CC(C4)C2)C3)c1` the Potency was inconclusive: 50.1 µM [inhibitor, partial curve]. In the case of `C=CCN1C=CC(=C/C=C(/C#N)C(=O)OCC)C=C1`, the Potency was inconclusive: 89.1 µM [inhibitor, single point]. With `Cc1ccc(NC(=O)CN2C(=O)CCc3ccccc32)cc1C` the Potency was active: 79.4 µM. In the case of `Cc1ccc(OCc2nc(-c3ccc(C(=O)NCCc4ccc(Cl)cc4)cc3)oc2C)cc1`, the Potency was “inactive”. For `CCC(=O)N1CCc2cc(S(=O)(=O)NCCC(=O)N3CCN(c4ccccc4)CC3)ccc21`, the Potency was inconclusive: 7.94 µM [inhibitor, full curve]. `COc1ccc(-c2c3c(=O)n(C)c(=O)n(C)c3cn2-c2ccc(O)cc2)cc1` was tested, and the Potency was active: 79.4 µM. In the case of `CCOc1ccc(NC(=S)Nc2cc(-c3ccccc3)[nH]n2)cc1`, the Potency was inconclusive: 28.2 µM [inhibitor, full curve]. With `COc1cccc(C(NC(C)=O)c2ccc3cccnc3c2O)c1` (stereo not given) the Potency was active: 17.8 µM. For `CCOc1cc2nc(-c3ccc(OC)c(OC)c3)nc(N3CCOCC3)c2cc1OC`, the Potency was active: 56.2 µM. `CC1(C)c2ccccc2N2CC(=O)NC21/C=C/c1ccco1` (stereo not given) was tested, and the Potency was inconclusive: 25.1 µM [inhibitor, partial curve]. In the case of `CCCCOc1ccc(C2(C)NC(=O)N(C)C2=O)cc1` (stereo not given), the Potency was “inactive”. In the case of `CCN1C(=O)[C@H]2[C@@H](c3ccc(-c4cccc(Cl)c4)c(OC)c3)N[C@@](C)(C(=O)OC)[C@H]2C1=O`, the Potency was inconclusive: 89.1 µM [inhibitor, single point]. With `COc1ccc(NC(=O)C2CCCN(C(=O)Nc3ccc(F)cc3)C2)cc1` (stereo not given) the Potency was “inactive”. For `CN1CCN(S(=O)(=O)c2ccc(NC(=O)c3ccc(Br)o3)cc2)CC1`, the Potency was inconclusive: 100 µM [inhibitor, single point]. For `O=C(CSc1nnnn1C1CC1)N1CCN(c2ccc(O)cc2)CC1`, the Potency was “inactive”. `Cc1cc(Nc2ccc(C(=O)N3CCCCC3)cc2)c2cccc(C)c2n1` was tested, and the Potency was “inactive”. `CCN(CC(=O)NCc1ccc(Cl)cc1)C(=O)/C=C/c1ccc(Cl)c([N+](=O)[O-])c1` was tested, and the Potency was inconclusive: 70.8 µM [inhibitor, partial curve]. For `COC(=O)c1cc(-c2ccc(C)o2)nc2ccccc12`, the Potency was inconclusive: 89.1 µM [inhibitor, single point]. In the case of `CCc1c(C)nc(SCC(=O)NNC(=O)c2ccco2)[nH]c1=O`, the Potency was “inactive”. For `CN(C)S(=O)(=O)c1ccc(-c2csc(N/N=C/c3ccco3)n2)cc1`, the Potency was “inactive”. `Brc1cccc(CNc2nc3ccccc3n2CCN2CCCCC2)c1` was tested, and the Potency was “inactive”. `NNC(=S)NC1CCCCC1` was tested, and the Potency was inconclusive: 50.1 µM [inhibitor, partial curve]. With `CO[C@H]1C=CO[C@@]2(C)Oc3c(C)c(O)c4c(O)c(c5c(c4c3C2=O)NC2(CCN(CC(C)C)CC2)N=5)=NC(=O)C(C)=CC=C[C@H](C)[C@H](O)[C@@H](C)[C@@H](O)[C@@H](C)[C@H](OC(C)=O)[C@@H]1C` the Potency was active: 39.8 µM. `O=C1NC(c2ccccc2)=C(c2ccc3ccccc3n2)C(c2ccccc2)N1` (stereo not given) was tested, and the Potency was “inactive”. With `COc1ccccc1OCCCCN1CCN(C(c2ccccc2)c2ccccc2)CC1` the Potency was inconclusive: 39.8 µM [inhibitor, partial curve]. `Cn1ccc(NC(=O)c2ccc(Cl)cc2Cl)n1` was tested, and the Potency was “inactive”. With `NC(=O)c1ccccc1NC(=O)CCCCCn1nnc2ccccc2c1=O` the Potency was “inactive”. With `Cc1ccc(Cl)cc1N1CCN(C(=O)Cc2cn(C)c3ccccc23)CC1` the Potency was inconclusive: 28.2 µM [inhibitor, partial curve]. `COc1ccc(Cn2c(CO)cnc2SCC(=O)Nc2ccc3c(c2)OCCO3)cc1` was tested, and the Potency was inconclusive: 79.4 µM [inhibitor, partial curve]. With `Cc1nc(NCCc2ccccc2)c2nnn(Cc3ccccc3Cl)c2n1` the Potency was inconclusive: 89.1 µM [inhibitor, single point]. For `CCOc1ccc(NC2SC(=O)N(Cc3ccccc3)C2=O)cc1` (stereo not given), the Potency was inconclusive: 3.55 µM [inhibitor, full curve]. In the case of `COc1ccc(Cc2nnc(N/N=C/c3ccc(N(C)C)cc3)[nH]c2=O)cc1OC`, the Potency was inconclusive: 89.1 µM [inhibitor, single point]. `CCCCN(C)Cc1c(C(=O)N2CCc3ccccc3C2)nc2ccc(Cl)cn12` was tested, and the Potency was inconclusive: 89.1 µM [inhibitor, single point]. With `CCN1CC2([N+](=O)[O-])C=CC(=O)C([N+](=O)[O-])(C1)C2CC(=O)c1ccccc1` (stereo not given) the Potency was inconclusive: 89.1 µM [inhibitor, single point]. `O=C1C(=O)N(CCO)C(c2ccccc2[N+](=O)[O-])/C1=C(\O)c1ccccc1` (stereo not given) was tested, and the Potency was “inactive”. In the case of `COc1ccc(-n2nc3ccc(NC(=O)c4ccc(C#N)cc4F)cc3n2)cc1Cl`, the Potency was “inactive”. For `O=C(NC(=S)Nc1ccc(-c2nc3ncccc3o2)cc1)c1ccccc1F`, the Potency was inconclusive: 89.1 µM [inhibitor, single point]. For `Cc1cc(O)c(N)c(C)c1Cl`, the Potency was inconclusive: 44.7 µM [inhibitor, partial curve]. For `CCN(CC)c1ccc(/C=N/n2nnnc2N)c(O)c1`, the Potency was inconclusive: 89.1 µM [inhibitor, single point]. With `O=C(c1ccc(Br)o1)N1CCN(Cc2ccccc2Cl)CC1` the Potency was inconclusive: 89.1 µM [inhibitor, single point]. In the case of `CSc1cccc(NS(=O)(=O)c2ccc(-c3coc(C)n3)cc2)c1`, the Potency was inconclusive: 79.4 µM [inhibitor, single point]. In the case of `Nc1c(C(=O)N2CCCCCC2)oc2ccccc12`, the Potency was inconclusive: 50.1 µM [inhibitor, partial curve]. For `Fc1ccc(-n2cc(-c3ccccc3)c3c(N4CCOCC4)ncnc32)cc1`, the Potency was inconclusive: 22.4 µM [inhibitor, full curve, poor fit]. `Cc1ccc(-c2cc(C(=O)N(Cc3ccccc3)Cc3ccco3)no2)cc1F` was tested, and the Potency was active: 50.1 µM. With `CC(C(=O)N1CCc2ccccc21)n1cccc1` (stereo not given) the Potency was inconclusive: 89.1 µM [inhibitor, single point].
